Measurements: the supplement of paper PMC11417369
This is one part of the list.

Test system: PfAP2-HC AP2 domain (GST-tagged)
Test: gcPBM binding intensity (ln(normalized median fluorescence intensity)); higher = stronger DNA binding
Outline: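 DNA-binding domains from P. falciparum, fused to GST and produced in E. coli, were put on an Agilent 4 × 180k double-stranded probe array for 1 h in 1× PBS holding 1% milk, 0.2 mg/ml BSA, 0.5% salmon testes DNA and 0.03% Triton X-100. Probes were primer-extended, 36 bp long and drawn from intergenic genomic regions, with negative controls included. After Alexa488 anti-GST antibody detection and a 488 nm scan, binding intensity was set as the highest Masliner-normalised natural-log median intensity across replicate spots of either probe orientation.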

Sequence	gcPBM binding intensity (ln)
GATTATTTTATAAGTACACACATTTATCTATAATAA [CACACA_site7256]	9.69
GATTAATACACATTCTTCCGACATAATAAGAAAAAG [GTGCAC_negctrl_site7]	9.56
CTTATATTTAGACACACACACAATAAAATGAAAAAA [CACACA_site1031]	10.3
AACCATGTTAACAACGCATGTATATCTATGGGTTTA [TGCATGCA_site419]	9.53
CCATAATATTATAGACGTACGAATATATATAAAAGA [XGTACX_site7295]	9.75
CACCCACACCAACACACACACATATATAATATATAT [CACACA_site595]	10.6
TATAGATAACAAAAGTGTACATGTTGTATACACATG [XGTACX_site3471]	9.71
AACAACTATTACTGCACACATTCTTACACTATATAA [CACACA_site654]	10.1
TATATATATAAACACACACACACACCCAAGCGTAGC [CACACA_site4210]	10.6
TATTTGTGTATTTTTACACACATTAATATATTTATA [CACACA_site7562]	9.78
TGTACAAATTATACTTCGAACGAAGGGCATACATAT [XGTACX_negctrl_site37]	9.68
TATATATATATTATATGTACACATTTGTGAATTATT [XGTACX_site5848]	9.64
TGTGTTATATATAAAGAAAAAAAAAAAAAATATATA [CACACA_negctrl_site567]	9.61
AAAAATTTAATTATTTGTACATAAAATACATTTCTG [XGTACX_site791]	9.48
TATTCCTATATAAAGACACACATATGTAACTACGAT [CACACA_site4139]	9.9
GAACTTTACAACCCAACACACAAAAAAGAAAAGAAA [CACACA_site1717]	10.1
ATTGGTGTATGTTTATGTACTTATCACAATTATGAA [XGTACX_site7055]	9.62
AATAGGAAAAGAAAAGCACACACATAAATAAATATA [CACACA_site8062]	10.3
ATATGTTCATTTAAAAGTACTTAATATAACATTTTT [XGTACX_site3332]	9.56
TATTTTAACATGTTTTCAAAAATAAAACATATAAAT [CACACA_negctrl_site1598]	9.3
TAATATGACATAAGGGGTACTATATATATATATATT [XGTACX_site386]	9.72
AAACATTTACTATATTGTACTTAAGATCTTATCGTA [XGTACX_site3919]	9.62

Sequence	gcPBM binding intensity (ln)
GTTTTATAAAAAGGCGCACACATATACATAAATATA [CACACA_site1864]	10.1
TAAATACAAAAATGCACACGAAAAGTAATATATATA [CACACA_site6151]	9.95
GATAAAGTACTTTATACACACAAATATTTATATATA [CACACA_site3974]	9.82
AAAAAGAAAATATATACACACCAAAAAAAAAAAAAA [CACACA_site5698]	9.75
TCAAATTACTAAAATACACACATATTATAGATATAT [CACACA_site7233]	9.69
TGTATATATAATAAAACACACATTTTTAATGTGCTC [CACACA_site1437]	9.74
AAACGATTAATGTGTACACACATAGTTATAAACATA [CACACA_site7073]	10.1
TTACACATGTATTTGGTGCATGTTGTTAACAAAATA	9.52
TTAACATACACTCTAGTGCATATATATAACAAAATA [GTGCAC_site9724]	9.49
ATTAAAACACAATATTCACACATGTATATTATATAT [CACACA_site5191]	9.8
AATTTAAATCTTCAAAGTACTAAAAAAAAAAATAAT [XGTACX_site8566]	9.34
ATCATATTTATATTGGTGCATTATGCATGAAATTTA [GTGCAC_site9571]	9.6
ATAATAAGCAGACACACACACACAAAAAAAAAAAAA [CACACA_site6477]	11
ATATAAATTTAATACACACCCAAAAAAAAAAAAAAA [CACACA_site3750]	9.72
TAAATAAATACATACACACACATACAGATATATATA [CACACA_site5690]	10.5
TATGCTTTGATGAAGACACACATATAGAAGCGTATT [CACACA_site1925]	9.66
CGCCCACAGATATATACACACATATATAAATAAATA [CACACA_site6877]	9.69
AAAACTATTTCTTTCAGTACATATTTGGACTTATAT [XGTACX_site4977]	9.52
TACTTTTATAAAAATTGTACAAAAAAAAAAAAAAAA [XGTACX_site2266]	9.03
TATGTTATAAAATATATATTATAATATGTATATATA [XGTACX_negctrl_site233]	9.49
AAACAAAAAAGTAAGAAAAGGGATGATTGGATCCAA [CACACA_negctrl_site1230]	9.62
AGATATTATAATTAATGTACAAAAAGAAAAAATAGA [XGTACX_site8964]	9.76
